Results published in PubChem BioAssay AID761 (NMMLSC, 2007).
Hit rate of the full screen: of about 190,000 compounds, about 400 (0.21%) were called active. The inconclusive results got no clear call from the source; some entries with a clear call stand among them for comparison.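 Rule for the calls: active = percent activity GTP binding at least 20 points away from the 100% baseline, either down as inhibitor or up as activator; inconclusive = compound flagged as likely green fluorescent from well-wide comparison; inactive = the rest.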

target: Cell division control protein 42 homolog (Homo sapiens) (UniProt P60953); assay: wildtype Cdc42 fluorescent GTP binding changes, either direction – biochemical, multiplex bead flow cytometry, Bodipy-GTP, primary screen (AID 761); details: GST-Cdc42 beads, at 10 µM, actives lie on both sides;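 note: median bead fluorescence of bound Bodipy-FL-GTP at 100 nM; 0% = excess unlabeled GTP control and 100% = no compound control; below 100% means less GTP binding so inhibitor and above means activator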
Chain of UniProt P60953 (P60953 whole entry, looked up): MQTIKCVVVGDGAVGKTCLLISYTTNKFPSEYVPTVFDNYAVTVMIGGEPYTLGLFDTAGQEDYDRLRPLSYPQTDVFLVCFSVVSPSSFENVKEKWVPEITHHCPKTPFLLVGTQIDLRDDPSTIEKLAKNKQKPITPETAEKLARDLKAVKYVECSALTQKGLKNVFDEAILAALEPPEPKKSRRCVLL

SMILES	percent activity (GTP binding)
NC(=O)C1CCN(CCC(=O)Nc2ccc3c(c2)CCC3)CC1	inconclusive: 103%
CCOC(=O)N1CCN(C(=O)c2nn(-c3cc(OC)cc(OC)c3)c(=O)c3ccccc23)CC1	inconclusive: 105%
CCc1ccccc1NC(=O)N[C@@H](C)C(=O)O	inconclusive: 111%
CN(C)/C=N/c1c(C#N)cnn1-c1nc2ccccc2s1	inactive: 98%
Cc1ccnc(NS(=O)(=O)c2ccc(CC(C)C)cc2)c1	inconclusive: 105%
CCOC(=O)N1CCC(NC(=O)CCc2c(C)nc3nc(C)nn3c2C)CC1	inconclusive: 104%
Cc1ccc2nsnc2c1NC(=O)c1ccccc1[N+](=O)[O-]	inconclusive: 107%
CC(C)(C)C1CCC(C(=O)OCC(=O)Nc2ccc3[nH]c(=O)[nH]c3c2)CC1 (configuration not stated)	inactive: 96%
CCOC(=O)c1cnc2c(Cl)cccc2c1NCCN(C)C	inconclusive: 104%
CCOc1cc(/C=C(\C#N)C(N)=O)ccc1OS(=O)(=O)c1ccccc1	inconclusive: 104%
Cn1c(=O)n(Cc2ccco2)c(=N)c2c3c(sc21)CCCC3	inconclusive: 95%
CCCCc1cc(=O)oc2c(CN(C)C)c(O)c(Cl)cc12	inconclusive: 111%
N/C(Cn1cncn1)=N\NC(=O)C(=O)Nc1cccc(C(F)(F)F)c1	inactive: 94%
O=C(CN1CCN(c2ccccc2O)CC1)NC(=O)NCc1ccco1	inconclusive: 102%
COc1ccc(C(=O)Nc2cccc(C(C)=O)c2)cc1OC	inconclusive: 107%
COc1ccc(C2(c3ccc(O)cc3O)CC(c3ccccc3Cl)NC(=S)N2)cc1 (configuration not stated)	inactive: 98%
Cc1no[n+]([O-])c1COc1cccc(/C=C2\N=C(c3ccccc3)OC2=O)c1	inconclusive: 122%
CCOc1ccc(-n2c(SCC(=O)NC(C)CC)nc3n[nH]c(C)c3c2=N)cc1 (configuration not stated)	inconclusive: 76%
Cc1oc2c(O)c(O)ccc2c(=O)c1-c1cnn(-c2ccccc2)c1	inactive: 100%
Cc1cccc(C)c1NC(=O)CN(C)C(C)C(=O)Nc1ccccc1-c1ccccc1 (configuration not stated)	inconclusive: 93%
O=S(=O)(Nc1cccc(-c2cn3c(n2)SCC3)c1)c1cccs1	inconclusive: 95%
CCOc1cc(C2NC(=O)N(C)C(C)=C2[N+](=O)[O-])ccc1OC(C)=O (configuration not stated)	inconclusive: 94%
O=C(c1cncc(Br)c1)N1CCc2ccccc2C1	inactive: 105%

SMILES	percent activity (GTP binding)
O=C(CSCc1ccccc1)Nc1ccc(F)c(F)c1	inactive: 101%
CCCCn1c(=O)c(C(C)=O)c(O)c2ccccc21	inactive: 96%
CC(Sc1nnc2ccccn12)C(=O)N1CCc2ccccc2C1 (configuration not stated)	inconclusive: 106%
CCc1nnc(NC(=O)CSc2nnc(-c3cccnc3)n2C)s1	inactive: 102%
O=C1CC(c2ccccc2)CC(O)=C1C=NCc1ccco1 (configuration not stated)	inconclusive: 103%
COc1ccccc1N1CCN(S(=O)(=O)c2cccc(F)c2)CC1	inconclusive: 275%
O=C(CSc1ncnc2c1nnn2Cc1ccc(F)cc1)NC1CCCC1	inactive: 96%
Cc1ccc(NS(=O)(=O)c2ccc(C3CCCCC3)cc2)cc1	inconclusive: 101%
C=CCSc1nc(-c2ccc(OC)cc2)c(C#N)c(=O)n1CC=C	inactive: 94%
O=C(O)c1csc(-n2nc(-c3ccccc3)cc2C(F)(F)F)n1	inconclusive: 90%
O=S1(=O)CC(O)C(N2CCC(c3ccccc3)CC2)C1 (configuration not stated)	inconclusive: 103%
CCc1nnc(NC(=O)CSc2nnc(Cc3cc(=O)[nH]c(=O)[nH]3)n2-c2ccc(OC)cc2)s1	inconclusive: 93%
COc1ccc(CNC(=S)NC(C)CCc2ccccc2)cc1 (configuration not stated)	inactive: 96%
CC(=O)c1cccc(NC(=O)N2CCCC2C(=O)NCc2ccc(C)cc2)c1 (configuration not stated)	inconclusive: 98%
O=C(N/N=C/c1cccnc1)C(O)c1ccccc1 (configuration not stated)	inconclusive: 101%
COc1cc(OC)c(NS(=O)(=O)c2cc(C(=O)OCC(=O)NCC3CCCO3)ccc2OC)cc1Cl (configuration not stated)	inactive: 99%
COc1ccc(CN2C(=O)/C(=C/c3ccc(-c4ccc(Cl)c(C(=O)O)c4)o3)SC2=S)cc1	active: 75%
C/C(=N\NC(=S)NCc1ccccc1)c1ccc(C)o1	inactive: 94%
O=C(COCC(=O)NCc1ccccc1)NCc1ccccc1	inconclusive: 93%
O=C(c1nn2c(C(F)(F)F)cc(-c3ccc(F)cc3)nc2c1Cl)N1CCOCC1	inconclusive: 174%
CC1S/C(=N/N=C/c2cccs2)NC1=O (configuration not stated)	inconclusive: 101%
CC(C)C(=O)Nc1ccc(C(=O)NNC(=O)C(c2ccccc2)c2ccccc2)cc1	inconclusive: 97%
Cc1cc(-c2nnc3n2N=C(c2ccc(-c4ccccc4)cc2)CS3)n[nH]1	active: 76%

SMILES	percent activity (GTP binding)
COC(=O)c1cc(NCc2ccccc2F)ccc1N1CCOCC1	inconclusive: 96%
CCOC(=O)c1c2c3c(cccc3[nH]c1=O)C(=O)c1ccccc1-2	active: 63%
COC(=O)C1=CN(C2CC2)C=C(C(=O)OC)C1c1ccccc1OC	inconclusive: 93%
Cc1ccc2cc(CN(CC3CCCO3)C(=S)Nc3ccccc3)c(=O)[nH]c2c1 (configuration not stated)	inconclusive: 93%
COc1ccc(C2C(C(C)=O)=C(O)C(=O)N2c2nccs2)c(OC)c1 (configuration not stated)	inactive: 96%
COCCSc1nnc(NC(=O)CSCc2ccccc2)s1	inconclusive: 101%
Cc1ccc(C2NC(=O)NC3=C2CCc2ccccc23)cc1 (configuration not stated)	inconclusive: 89%
CC(=O)C(Cc1cccc(F)c1)(Cc1cccc(F)c1)C(C)=O	inconclusive: 96%
CCc1nc(N2CCCCC2C)c2oc3ccccc3c2n1 (configuration not stated)	inconclusive: 87%
CCOC(=O)C1CCN(C(=O)CCNC(=O)Cn2ccc3ccccc3c2=O)CC1	inconclusive: 105%
CCOc1ccc(N2C(=O)c3ccc(C(=O)OCC(=O)N(CC)C4CCS(=O)(=O)C4)cc3C2=O)cc1 (configuration not stated)	inconclusive: 96%
COc1ccc(N2C(=O)CC(Cc3ccccc3)C2=O)cc1 (configuration not stated)	inconclusive: 106%
CC1Cc2ccccc2N1C(=O)Cn1c(=O)oc2cc(S(=O)(=O)N3CCCCC3)ccc21 (configuration not stated)	inactive: 104%
COc1ccc(-c2c3c(nc4sc(C(=O)Nc5cc(C)on5)c(N)c24)CCC3)cc1	inactive: 94%
COc1cc(/C=C/C(=O)OCC(=O)c2c(N)n(C)c(=O)n(C)c2=O)ccc1OCC#N	inactive: 85%
Cc1ccc(/C=N/NC(=O)c2ccc(C(=O)N/N=C/c3ccc(C)s3)o2)s1	inconclusive: 92%
COc1cccc(/C=N/N=C(\N)c2nonc2N)c1O	inactive: 81%
O=c1c2sccc2nc(SCc2cc(=O)n3cc(Cl)ccc3n2)n1Cc1ccccn1	inconclusive: 98%
N#C/C(=C\c1ccncc1)c1nc2ccccc2[nH]1	active: 41%
O=C(O)CCc1ccc(-c2cccs2)n1Cc1ccco1	inconclusive: 121%
CC(C)C1=NOC(C(=O)N2CCC(N3CCC(C(=O)N4CCOCC4)CC3)CC2)C1 (configuration not stated)	inconclusive: 96%
CCOc1ccc(C(C)NC(=O)c2cccc(F)c2)cc1 (configuration not stated)	inactive: 100%
CCOC(=O)NC(=O)CSc1ccccn1	inconclusive: 97%

SMILES	percent activity (GTP binding)
COc1ccc(-c2nnc3sc(-c4ccco4)nn23)cc1OC	inactive: 101%
CCCN1C(=O)C(Cc2nc3ccccc3c(=O)n2C)c2ccccc21 (configuration not stated)	inconclusive: 101%
O=C(O)CCc1ccc(-c2cccs2)n1CC(=O)Nc1ccccc1C(F)(F)F	inactive: 97%
Cc1cc(NC(=O)CCC(=O)N(c2ccc(F)cc2)C(C(=O)NC2CCCC2)c2ccc(C)o2)no1 (configuration not stated)	inactive: 97%
O=C(NCCCn1ccnc1)c1cc2c(ccc3ccccc32)o1	inactive: 97%
O=c1c2ccccc2nnn1CSc1ccc2c(c1)OCCO2	inconclusive: 106%
O=C(CCN1CCCC1Cc1ccccc1)c1ccc2c(c1)OCCO2 (configuration not stated)	active: 76%
CC1(C)CC(=O)C2=C(C1)OC(c1ccncc1)C(C#N)=C2N (configuration not stated)	inconclusive: 106%
O=C(OCCCN=C1NS(=O)(=O)c2ccccc21)c1ccc([N+](=O)[O-])cc1	inactive: 93%
Cc1cc(N2C(=O)CC(Cc3ccc(Cl)cc3)C2=O)no1 (configuration not stated)	inconclusive: 106%
S=C(NCC1CCCO1)Nc1ccccc1 (configuration not stated)	inconclusive: 92%
CCN(CC)CCCn1c(=S)[nH]c2cc(C(=O)OC)ccc2c1=O	inconclusive: 105%
Cc1[nH][nH]c(=O)c1C(c1ccc(-c2ccc(Cl)c(C(=O)O)c2)o1)c1c(C)[nH][nH]c1=O	inconclusive: 90%
COc1ccc(C(=O)OCC(=O)Nc2nc3c(F)c(F)c(F)cc3s2)cc1OC	inactive: 97%
Cc1cc(-c2ccccc2)c(C#N)c(N)n1	inconclusive: 87%
CCOC(=O)c1cc(-c2ccc(OC(F)F)cc2)nc2c1c(=O)[nH]c(=O)n2C	inactive: 92%
CCCc1[nH]nc2c1C(c1ccc(OC)c(Cn3nnc4ccccc43)c1)C(C#N)=C(N)O2 (configuration not stated)	inconclusive: 102%
CSc1nc2ccc(NC(=O)C3CC(=O)N(Cc4ccco4)C3)cc2s1 (configuration not stated)	active: 75%
COCCN1C(=O)/C(=C/c2ccc(N3CCCC3)cc2C)SC1=S	inconclusive: 170%
O=C(Cc1ccc(Nc2nc(=S)[nH]c3ccccc23)cc1)NC1CCCCC1	active: 65%
O=c1c(-c2ccco2)[n+]([O-])c2ccccc2n1OCc1ccccc1[N+](=O)[O-]	inconclusive: 94%
CCOc1ccc(NC(=O)CC2C(=O)N(c3ccc(OC)cc3)C(=S)N2Cc2ccccn2)cc1 (configuration not stated)	inactive: 96%
Cc1ccc(N2C(=O)c3ccc(C(=O)N4CCN(c5cccc(C)c5C)CC4)cc3C2=O)cc1	inactive: 93%
